PubChem BioAssay (Tox21)
“And” between values parts separate entries of the source, which are not always exact repeats. Equal entries are not always repeated. This list was built around the results that the source calls inconclusive (neither active nor inactive); the mix of calls is not that of the screen. A potency beside an inconclusive call is a rough fit, not a confirmed value. The source made the active and inactive calls. The call rests on the fitted dose curve; in most records, active means well fitted curve in the direction sought with a large enough effect in the repeat runs; inconclusive means weak or mixed curves; inactive means no such curve, though single readings can be large; an effect the other way counts as inactive or inconclusive.
On the % scale 0 is the no-effect control and ±100 the full control effect; potency means the concentration at half of the fitted maximal effect; tags describe the fitted curve by direction and shape.

Experiment: qHTS assay to identify small molecule antagonists of the glucocorticoid receptor (GR) signaling pathway - cell viability counter screen (AID 720693); further: nearly all actives have a fitted effect of over 55% in size
Conditions: GR-bla HeLa viability, CellTiter-Glo luminescence, 18 h, with 5 nM dexamethasone present; viability change, negative = cytotoxic: at 58.5 µM (top of the series) unless noted
In the case of `CC(C)C(O)C(C)(C)CO` (centres undefined), the Potency is reported as inconclusive: 10.1 µM [rising, partial curve, poor fit]. In the case of `CCc1oc2ccccc2c1C(=O)c1cc(I)c(O)c(I)c1`, the Potency is reported as inconclusive: 19 µM [cytotoxic]. With `CCC(=O)Nc1ccc(O)cc1` the “viability change, negative = cytotoxic” value was inactive: 11.7%. For `O=C1NCCN1CCN1CCC(c2cn(-c3ccc(F)cc3)c3ccc(Cl)cc23)CC1`, the Potency was active: 23.9 µM and inconclusive: 16.9 µM [cytotoxic, partial curve].

Experiment: qHTS assay for identifying genotoxic compounds that show differential cytotoxicity against isogenic chicken DT40 cell lines with known DNA damage response pathways - Rad54/Ku70 mutant cell line (AID 743015); further: nearly all actives have a fitted effect of over 60% in size
Conditions: DT40 Rad54/Ku70 mutant viability, CellTiter-Glo, 40 h; activity change, negative = cytotoxicity: at 66.8 µM (top of the series)
In the case of `CN(C)c1ccc(N=Nc2ccccc2C(=O)O)cc1`, the Potency is reported as inconclusive: 12.2 µM [cytotoxic]. In the case of `CC(C)CCCCCCCCCCCCCCC(=O)O`, the “activity change, negative = cytotoxicity” value is reported as inactive: -8.01%. With `C[C@H](CCC(=O)O)[C@H]1CC[C@H]2[C@@H]3CC[C@@H]4C[C@H](O)CC[C@]4(C)[C@H]3CC[C@]12C` the Potency was inconclusive: 48.6 µM [cytotoxic, partial curve, poor fit]. In the case of `NC(=O)CC[C@@H](N)C(=O)O`, the “activity change, negative = cytotoxicity” value is reported as inactive: 4.22%. In the case of `CCc1oc2ccccc2c1C(=O)c1cc(I)c(O)c(I)c1`, the Potency is reported as inconclusive: 29.8 µM [cytotoxic, single point].
